Experimental data published in the supplement of paper PMC12217912.
The other results are listed elsewhere or left out. Sequences were assembled here from the parent chain. Values near 0.05 are background.

B1: TEV protease; numbered along this chain (parent)
chain: MGESLFKGPRDYNPISSSICHLTNESDGHTTSLYGIGFGPFIITNKHLFRRNNGTLVVQSLHGVFKVKDTTTLQQHLVDGRDMIIIRMPKDFPPFPQKLKFREPQREERICLVTTNFQTKSMSSMVSDTSCTFPSGDGIFWKHWIQTKDGQCGSPLVSTRDGFIVGIHSASNFTNTNNYFTSVPKNFMELLTNQEAQQWVSGWRLNADSVLWGGHKVFMVKPEEPFQPVKEATQL

Variants of: B1
Assay: raw area under fraction-flipped curve 0-4 h after induction (AUC4h, not background-subtracted), DNA-recorder readout of cleavage of the substrate (dimensionless); higher = more cleavage of the substrate by the protease variant
Conditions: temperature: 34 °C; time window: 0-4 h after rhamnose induction
Description: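 In vivo DNA recorder in E. coli TOP10(DE3) ΔrhaA at 34 °C. Each TEVp single-site mutant (parent TEVp 0) is paired with a single-site variant of the 7-mer TEVs (canonical ENLYFQ|S). The substrate sits between flexible linkers in a Bxb1-sfGFP-TEVs-SsrA fusion, so cleavage stabilises Bxb1 and speeds flipping of a recombination array, read by NGS. The value is the raw area under the fraction-flipped curve over 0-4 h after rhamnose induction (AUC4h), with ≥20 reads per time point. It is not background-subtracted; inactive controls average about 0.047.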
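Note: Bxb1 expression induced with 0.2% (w/v) L-rhamnose at OD600 near 0.5, cultures sampled hourly, flipped fraction per protease–substrate barcode pair counted by paired-end Illumina sequencing.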

| Variant | area with substrate ENLYFAS | area with substrate ENLYFCS | area with substrate ENLYFDS | area with substrate ENLYFES | area with substrate ENLYFFS | area with substrate ENLYFGS | area with substrate ENLYFHS | area with substrate ENLYFIS | area with substrate ENLYFKS | area with substrate ENLYFLS | area with substrate ENLYFMS | area with substrate ENLYFNS | area with substrate ENLYFPS | area with substrate ENLYFTS | area with substrate ENLYFWS | area with substrate ENLYFYS | area with substrate ENLYFRS | area with substrate ENLYFVS | area with substrate ENLYFSS |
| --- | --- | --- | --- | --- | --- | --- | --- | --- | --- | --- | --- | --- | --- | --- | --- | --- | --- | --- | --- |
| L112P | 0.0485 | 0.055 | 0.0602 | 0.0511 | 0.0909 | 0.0673 | 0.059 | 0.055 | 0.0576 | 0.0524 | 0.052 | 0.061 | 0.0489 | 0.0515 | 0.0755 | 0.0541 | – | – | – |
| T115D | 0.0588 | – | 0.0621 | 0.0613 | – | – | – | 0.0516 | 0.064 | – | 0.0737 | 0.0995 | 0.0586 | – | – | – | 0.0676 | – | – |
| N116M | 0.0561 | – | – | – | 0.0635 | 0.0558 | – | 0.0617 | 0.0538 | – | – | – | 0.0603 | – | 0.0575 | 0.0521 | – | – | – |
| N116R | 0.0577 | – | 0.0744 | – | 0.0692 | – | – | 0.0579 | 0.0702 | – | – | 0.0577 | 0.0414 | 0.064 | – | – | 0.0584 | 0.0418 | – |
| F117W | 0.0731 | – | 0.0554 | – | – | – | – | – | 0.0633 | – | 0.0701 | – | 0.0836 | 0.0644 | 0.0549 | 0.0611 | – | – | 0.0657 |
| K120R | 0.0651 | 0.0644 | 0.0602 | 0.0669 | 0.0673 | 0.0623 | 0.0693 | 0.0611 | – | – | 0.0412 | 0.0722 | 0.0571 | 0.0634 | 0.0417 | – | – | 0.0518 | 0.0597 |
| S121C | 0.0668 | 0.0644 | 0.0627 | 0.0522 | – | 0.0631 | – | 0.0536 | 0.065 | – | – | 0.0651 | – | – | 0.0524 | – | – | 0.0566 | – |
| M122G | 0.053 | – | – | 0.0697 | – | 0.0568 | – | 0.0454 | – | – | – | 0.0596 | – | 0.0512 | – | 0.0609 | – | – | 0.0519 |
| S123F | 0.0607 | 0.0575 | 0.0569 | 0.0624 | – | 0.0573 | 0.0807 | – | – | – | 0.074 | 0.0692 | 0.0611 | 0.0594 | 0.0747 | 0.0506 | 0.0606 | 0.0737 | – |
| V126L | 0.0609 | 0.0642 | – | 0.0847 | 0.0754 | – | – | 0.0643 | – | 0.0433 | – | – | – | – | – | – | 0.0373 | 0.0509 | – |
| S127F | 0.058 | 0.0643 | 0.0613 | 0.0662 | 0.0719 | 0.0584 | 0.0578 | 0.0545 | 0.0676 | – | 0.0763 | 0.0758 | 0.0557 | 0.0652 | – | 0.0585 | 0.057 | 0.0428 | – |
| S127V | 0.0672 | 0.0564 | 0.0528 | 0.06 | 0.0696 | 0.0646 | 0.0528 | 0.0654 | – | – | 0.0704 | 0.0595 | 0.059 | 0.0662 | – | 0.0684 | 0.067 | 0.0628 | – |
| T129S | 0.0602 | – | 0.0502 | 0.0654 | 0.0749 | 0.0576 | 0.0616 | 0.0643 | 0.0588 | 0.0573 | 0.0801 | 0.0631 | 0.0591 | 0.0616 | 0.0516 | 0.0568 | 0.0446 | – | – |
| S130L | 0.0586 | – | 0.0277 | 0.0597 | – | 0.0549 | 0.0583 | 0.0626 | 0.0676 | 0.0543 | 0.0749 | – | 0.0562 | 0.0479 | 0.0644 | 0.0449 | 0.049 | – | 0.0553 |
| T132L | 0.0523 | – | 0.0583 | – | – | – | 0.0703 | 0.0575 | 0.0687 | 0.0503 | 0.074 | 0.0783 | 0.0579 | 0.058 | 0.0615 | – | 0.0537 | – | 0.0409 |
| T132P | 0.0417 | – | – | 0.0637 | 0.0434 | 0.0541 | 0.0707 | – | – | – | 0 | – | 0.0612 | 0.061 | 0.0445 | – | – | 0.0729 | 0.0488 |
| T132W | 0.0538 | 0.0509 | – | 0.0614 | 0.0764 | – | 0.0578 | 0.0559 | 0.0453 | 0.0594 | 0.0525 | – | 0.0639 | 0.0571 | 0.0481 | 0.0507 | – | – | – |
| G136S | 0.0599 | – | – | 0.0685 | 0.0706 | – | 0.0602 | 0.0588 | 0.0355 | – | 0.0592 | 0.0702 | – | – | 0.0501 | – | 0.0621 | – | – |
| G138D | 0.0476 | – | – | – | – | 0.056 | – | – | – | – | – | – | – | 0.0622 | – | – | – | 0.047 | – |
| I139D | 0.0589 | 0.0587 | – | 0.0771 | 0.0534 | – | 0.0159 | 0.0566 | 0.0627 | – | 0.065 | – | 0.0578 | – | – | 0.0267 | – | 0.0495 | 0.0662 |
| I139L | 0.065 | 0.0852 | – | – | – | 0.0572 | – | 0.0556 | 0.0635 | 0.0552 | 0.0677 | 0.0724 | 0.0576 | 0.0653 | 0.0375 | 0.0632 | 0.0632 | 0.0582 | 0.0583 |
| F140D | 0.0616 | 0.0641 | – | – | 0.0764 | – | – | 0.064 | 0.0681 | – | – | – | – | – | – | 0.0584 | 0.0657 | – | 0.0655 |
| F140H | 0.0505 | – | – | 0.0672 | 0.098 | 0.0536 | – | – | – | – | – | 0.0632 | 0.067 | – | – | – | 0.0603 | – | 0.0518 |
| W141T | 0.0589 | – | 0.056 | – | 0.057 | 0.0588 | 0.055 | – | 0.0619 | – | 0.0493 | – | – | – | – | 0.0728 | – | – | – |
| W141V | 0.0607 | 0.0524 | – | 0.0661 | 0.0695 | – | 0.0605 | 0.0561 | 0.0635 | – | 0.0707 | 0.0702 | 0.0412 | – | 0.0333 | – | 0.0576 | 0.0572 | – |
| W141Y | 0.0731 | 0.0543 | – | 0.0578 | 0.0635 | – | – | 0.0203 | – | 0.0428 | 0.0823 | – | 0.0556 | – | 0.0388 | – | – | – | – |
| K142Q | 0.0602 | 0.0496 | – | 0.0599 | 0.0617 | – | – | 0.0604 | 0.056 | – | 0.075 | 0.0594 | 0.0608 | 0.0792 | – | – | – | 0.0609 | – |
| K142V | 0.0451 | 0.0765 | – | 0.0696 | 0.0502 | – | – | 0.0566 | – | 0.0511 | 0.0533 | 0.0596 | 0.0537 | 0.0971 | 0.0558 | 0.0498 | 0.0419 | 0.0651 | 0.0619 |
| H143M | 0.0587 | – | 0.0559 | – | 0.0585 | 0.054 | – | 0.051 | 0.0716 | 0.0521 | 0.0686 | 0.0513 | – | 0.0499 | 0.0879 | – | 0.0665 | 0.0567 | – |
| H143T | 0.0497 | 0.0722 | 0.0587 | 0.0579 | 0.0569 | – | 0.0573 | – | 0.0664 | – | 0.0534 | – | 0.0568 | – | 0.0611 | – | 0.0507 | – | – |
